Data published in PMC6919601, “Identification of Plasmodium dipeptidyl aminopeptidase allosteric inhibitors by high throughput screening” (PLoS ONE, 2019).
About 230 (0.21%) of roughly 110,000 compounds showed an effect of 50% or more. The list shows a part of the results.

target: DPAP1 (Plasmodium falciparum, UniProt Q8IIJ9); assay: primary screen, percent inhibition; read by cleavage of a fluorogenic dipeptide substrate; higher = more effect of the substance; parameters: species or system P. falciparum D10 trophozoite lysates; single well
Sequence (Q8IIJ9 whole entry, looked up): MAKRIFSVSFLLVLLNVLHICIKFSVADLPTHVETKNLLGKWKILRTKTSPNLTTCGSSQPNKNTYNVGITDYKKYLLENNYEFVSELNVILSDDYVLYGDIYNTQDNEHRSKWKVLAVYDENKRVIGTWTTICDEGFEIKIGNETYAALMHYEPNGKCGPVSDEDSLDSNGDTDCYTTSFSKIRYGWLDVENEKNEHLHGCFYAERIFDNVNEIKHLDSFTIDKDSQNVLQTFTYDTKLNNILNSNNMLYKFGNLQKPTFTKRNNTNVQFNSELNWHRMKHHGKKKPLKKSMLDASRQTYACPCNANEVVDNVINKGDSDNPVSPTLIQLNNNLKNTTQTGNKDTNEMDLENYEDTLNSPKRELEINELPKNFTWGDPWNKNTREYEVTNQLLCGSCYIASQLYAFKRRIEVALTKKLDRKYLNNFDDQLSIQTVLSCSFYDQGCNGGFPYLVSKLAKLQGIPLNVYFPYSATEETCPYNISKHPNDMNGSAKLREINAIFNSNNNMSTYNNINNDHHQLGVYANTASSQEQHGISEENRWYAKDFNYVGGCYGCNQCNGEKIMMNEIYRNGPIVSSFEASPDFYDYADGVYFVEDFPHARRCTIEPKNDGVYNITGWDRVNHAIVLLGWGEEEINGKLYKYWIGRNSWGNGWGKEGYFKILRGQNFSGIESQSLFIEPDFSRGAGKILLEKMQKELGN
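Note: 30 min substrate incubation versus DMSO and 10 µM JCP410 controls.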

Row | Compound | % Inhibition @ 10 uM [%]
1 | Cc1cc(Cl)ccc1OCCOCCN1CCC(C)CC1 | -1.22
2 | O=C(/C=C/c1ccco1)NCCc1cccc(F)c1 | -3.21
3 | Cc1ccccc1-c1nc2s/c(=C\c3ccc(F)cc3)c(=O)n2n1 | -2.98
4 | CCc1cc2c(=O)c(Oc3ccccc3)c(C)oc2cc1OC | 0.161
5 | Cc1ccc(NC(=O)CSc2nc3ccccc3[nH]2)cc1 | 3.69
6 | CCN1CCCC1CNC(=O)Nc1cn(C)c(=O)c2ccccc12 (centres unmarked) | 3.48
7 | COCCCNC(=O)c1cc(C)nc2c1c(C)nn2-c1ccc(C)cc1 | 2.73
8 | CCc1ccc(COC(=O)N[C@@H](CC(C)C)C(=O)NCC#N)cc1 | -3.04
9 | CCOC(=O)c1cc2c(=O)n3ccccc3nc2n(C2CCCCC2)/c1=N\C(C)=O | -8.38
10 | CC1CCN(C(=O)c2ccccc2NC(=O)c2cccc(S(=O)(=O)N(C)C)c2)CC1 | -7.76
11 | COc1ccccc1C(=O)N1CCN(C(=O)COc2ccc(Cl)cc2)CC1 | 3.43
12 | CCCC1CCC(C2CCC(c3noc(-c4ccccc4C)n3)CC2)CC1 (centres unmarked) | 4.38
13 | CC1CN(Cc2ccc[nH]2)CC(C)O1 (centres unmarked) | -1.5
14 | COc1cc(CNC(C)(C)C)cc(Br)c1OCc1cccs1 | -1.16
15 | CCOc1cc(/C=C2/NC(=O)N(Cc3ccccc3F)C2=O)ccc1O | -1.32
16 | COc1ccccc1CN1CC(C(=O)NCc2cccnc2)CC1=O (centres unmarked) | 2.18
17 | COc1cccc2c1oc(=O)c1c(N)nc3c(c12)CC(C(C)(C)C)CC3 (centres unmarked) | -3.13
18 | Cc1ccc(-c2cn3c(n2)sc2cc(C(=O)N4CCN(c5ncccn5)CC4)ccc23)c(C)c1 | 15.3
19 | CC(CCc1ccccc1)NC(=O)CCCn1c2ccccc2c2cnnc(O)c21 (centres unmarked) | 1.38
20 | O=C(Nc1nc(-c2ccccc2)cs1)C1CCCCC1 | -2.42
21 | O=C(NC1CCN(Cc2ccccc2)CC1)[C@H](Cc1ccccc1)N1Cc2ccccc2C1=O | -2.25
22 | Cc1ccc(NC2=NC(=O)/C(=C\c3ccc(N(C)C)cc3)S2)cc1 | -8.88
23 | CCN(CC)Cc1c(O)ccc2c(=O)c(-c3ccccc3)coc12 | -5.7
24 | Cc1cccc(OCC(=O)O/N=C(\N)c2ccncc2)c1C | 2.25
25 | CCC(=O)Nc1nc(C23CC4CC(CC(C4)C2)C3)c(C)s1 | -5.87
26 | Oc1ccc(CNc2cccc(F)c2)c2cccnc12 | 1.89

Row | Compound | % Inhibition @ 10 uM [%]
27 | Cc1nnc(N2CCN(C(=O)NC3CCCC3)CC2)c2nn(-c3ccccc3)c(C)c12 | 3.24
28 | CCC(C(=O)NCc1cccc(OC)c1)n1ncn2c(cc3occc32)c1=O (centres unmarked) | 4.83
29 | O=C(CN1CCCCC1)Nc1ccc2c(c1)OCCO2 | 1.08
30 | COc1cc(OC)c(NC(=O)c2cccnc2)cc1Cl | -3.37
31 | CCNC(=O)CN(c1ccc(F)cc1)S(=O)(=O)c1ccccc1 | 2.5
32 | COC(=O)c1ccc(NC(=O)c2ccc([N+](=O)[O-])cc2Cl)cc1 | 2.54
33 | CN(Cc1ccccc1)C(=O)c1cc(S(=O)(=O)N2CCOCC2)cn1C | -2.17
34 | CCCc1n[nH]c(SCc2cccc(Oc3ccccc3)c2)n1 | -1.81
35 | Sc1nnc(-c2ccccc2)n1/N=C/C=C/c1ccco1 | 2.56
36 | CCC/N=c1/c(-c2ccc(C(C)C)cc2)c(O)c1=O | -5.96
37 | Cc1ccc(C2CC(=O)N=C(NC(=O)c3cccnc3)N2)cc1 (centres unmarked) | 3.89
38 | CCOC(=O)c1c(S(=O)(=O)N2CCCCC2C)c(C)n(C)c1C (centres unmarked) | 5.25
39 | COc1ccc(/N=C2\SC(C(=O)Nc3ccc(Cl)cc3)CC(=O)N2C)cc1 (centres unmarked) | -3.28
40 | CC(C)C[C@H](NC(=O)c1cccnc1)C(=O)NCC#N | 10.2
41 | COc1ccc(Cl)cc1Cc1nc(C)cc(O)n1 | 1.72
42 | O=C(CCCCCN1C(=O)c2ccccc2C1=O)Nc1nc(C2CC2)cs1 | 4.3
43 | COc1ccc(C(=O)Nc2ccc(C(=O)O)cc2)c(OC)c1 | 11.8
44 | CC/C(=C\c1sc2ccc(OC)cc2[n+]1CC)SCC(=O)O | 11.8
45 | CCCCCCP(=O)(O)c1ccccc1 | -2.51
46 | COc1ccc(CNC(=O)c2cc3c(s2)CN(Cc2ccccc2)C3)cc1 | 5.81
47 | CC1=C(C(=O)Nc2ccccc2)C(c2ccc3c(c2)OCO3)C(C(=O)Nc2ccccc2)=C(C)N1 | -3.5
48 | O=C(COCc1cc(-c2ccc3c(c2)OCO3)on1)NC1CCCc2ccccc21 (centres unmarked) | 3.62
49 | Cc1nn(-c2ccccc2)c(N)c1C(c1ccccc1)c1cccs1 (centres unmarked) | -1.7
50 | COc1cccc(-c2cc(C(=O)NCCCN3CCOCC3)c3ccccc3n2)c1 | 4.76
51 | C#CCOC(=O)c1ccccc1C(=O)N(CC)CC | -0.597
52 | CC(=O)c1sc(N2C(=O)C(O)=C(C(=O)c3cc4ccccc4o3)C2c2ccccc2)nc1C (centres unmarked) | 9.72

Row | Compound | % Inhibition @ 10 uM [%]
53 | CNC(=O)Cn1cnc2c1c(=O)[nH]c(=O)n2C | 1.76
54 | NC(=O)c1cc(NC(=O)c2cccc(F)c2)cc(C(N)=O)c1 | -6.36
55 | CC(=O)Nc1sc2c(c1C(=O)Nc1ccccc1)CCC(C)C2 (centres unmarked) | 3
56 | O=C(CNS(=O)(=O)c1cc(Cl)ccc1Cl)N1CCN(c2ccc(F)cc2)CC1 | 4.05
57 | CCCN(Cc1ccc2c(c1)c1ccccc1n2CC)CC1CC1 | -4.04
58 | Cc1cc(C)c(S(=O)(=O)N=C2C=CC(=O)C=C2)c(C)c1 | -0.178
59 | COc1cc(/C=c2\sc3ncnn3c2=O)cc(OC)c1OC | -1.52
60 | Cc1ccc(Cl)cc1NS(=O)(=O)c1ccc([N+](=O)[O-])cc1 | 1.04
61 | CCC(C)N(CCNC(=O)c1c2c(nc3ccccc13)C(=O)N(C1CCCCC1)C2)Cc1ccco1 (centres unmarked) | 2.48
62 | Cc1ccc(NC(=O)C2CC(Cl)=CCC2C(=O)O)c(Br)c1 (centres unmarked) | 0.726
63 | COc1ccc(-c2nonc2NC(=O)COc2c(F)c(F)c(F)c(F)c2F)cc1OC | 2.29
64 | O=C1OCc2ccccc2N1Cc1ccccc1 | -4.52
65 | Oc1nc(-c2ccccn2)cc2ccccc12 | -7.06
66 | COc1ccc(NC(=O)CN(c2cccc(Br)c2)S(C)(=O)=O)cc1 | 4.25
67 | CCn1c(/C=C/c2ccccc2)nc2ccccc2c1=O | 17.5
68 | CCCCn1c2ccccc2c2cc(C(C)=O)ccc21 | -4.84
69 | O=C(CCC(=O)c1ccc(F)cc1)Nc1cccnc1 | -0.551
70 | C=COCCn1c2ccccc2c2cc(Br)ccc21 | 1.9
71 | CN(C1CCCCC1)S(=O)(=O)c1ccc(CN2C(=O)c3cccnc3C2=O)cc1 | 4.48
72 | Cc1ccnc(NC(=O)CCNS(=O)(=O)c2cc(Br)cnc2N)c1 | -10.1
73 | CCOc1cc(/C=C2/SC(NC(C)=O)=NC2=O)ccc1OCC(=O)O | 4.85
74 | CC(C)=CCC[C@H](C)CCN1CCN(c2cccc(Cl)c2)CC1 | -5.94
75 | Cc1ccc(S(=O)(=O)Nc2ccc(-c3cn4ccsc4n3)cc2)c(C)c1 | -0.366
76 | O=C(CCN1C(=O)c2ccccc2C1=O)NCC1CCCO1 (centres unmarked) | -0.349
77 | COCc1[nH]nc2c1C(c1cccc(OC)c1)C(C#N)=C(N)O2 (centres unmarked) | 6.24
78 | CCOc1cc(C2CC(=O)NC3=C2C(=O)CC(c2cccs2)C3)ccc1O (centres unmarked) | 3.6

Row | Compound | % Inhibition @ 10 uM [%]
79 | Cc1cccc(NC(=O)COc2cc(C)c(Cl)c(C)c2)n1 | 5.99
80 | COCCNC(=O)CC(c1cc(OC)c(OC)c(OC)c1)N1Cc2ccccc2C1=O (centres unmarked) | -3.47
81 | Cc1cc2nc(NC3=NCN(Cc4cccnc4)CN3)nc(C)c2cc1C | -3.53
82 | Fc1ccc(CNc2nc3c(-c4ccccc4)nnn3c3ccccc23)cc1 | -2.92
83 | CCOC(=O)N1CCC(NCc2ccc(Cl)cc2)CC1 | 1.88
84 | O=C(Nc1c(C(=O)C2CC2)oc2ccccc12)c1ccc(Cl)cc1 | 2.15
85 | CCOC(=O)N1CCC(NC(=O)c2cc3ccc4cccnc4c3[nH]2)CC1 | -2.9
86 | COc1ccccc1CNC(=O)Cn1ncc2ccsc2c1=O | -4.69
87 | O=C1NC2(CCCCC2)N(C(=O)c2cccs2)C2=C1CCCC2 | 0.366
88 | O=c1c2c(nc(SCCc3ccccc3)n1-c1ccccc1)-c1ccccc1CC21CCCC1 | 1.27
89 | O=C(C1=C(O)C(=O)N(c2nccs2)C1c1ccccc1)c1ccc(Cl)cc1 (centres unmarked) | -6.67
90 | CCCc1ccccc1OCCNS(=O)(=O)c1cc(OC)c(Cl)cc1OC | 2.72
91 | Cc1c(C(=O)NCCCN2CCN(C)CC2)sc2ncn(CC(=O)N3CCCCC3C)c(=O)c12 (centres unmarked) | -8.7
92 | CCC(=O)NC(C)c1nc2ccccc2n1Cc1ccccc1F (centres unmarked) | 1.5
93 | Clc1ccccc1-c1nnc2sc(CCc3ccccc3)nn12 | 0.0539
94 | O=C(C1CCN(S(=O)(=O)c2ccc(F)cc2)CC1)N(Cc1ccccc1)Cc1ccccc1 | 0.583
95 | CCOc1cccc2c1Oc1nc(-c3cccc(O)c3)nc(O)c1C2 | 3.92
96 | Cc1ccc(NC(=O)c2cc3ccccc3cc2O)c([N+](=O)[O-])c1 | -2
97 | COc1ccc(-c2nnn3c2nc(NC(C)c2ccccc2)c2ccccc23)cc1 (centres unmarked) | -1.21
98 | O=C(NCCc1ccccc1)c1ccc(CS(=O)c2ccccc2Cl)o1 (centres unmarked) | 1.5
99 | CC1(C)CC(N(Cc2ccccc2)C(=O)Cc2ccccc2)CCO1 (centres unmarked) | 1.91
100 | COCCCNC(=O)/C(C#N)=C/c1c(Oc2cc(C)ccc2C(C)C)nc2ccccn2c1=O | -5.1
101 | Cc1ccc(CN(C)CCc2ccccn2)o1 | -1.21
